Reference: PMC4336329 (PLoS ONE, 2015)
Out of some 310,000 compounds screened, about 14,000 (4.5%) showed an effect of 50% or more. The effect is printed as a negative number. This is one part of the list.

Each compound was assayed against human ether-à-go-go-related gene (hERG) potassium channel (human, UniProt Q12809) (assay: primary screen, population patch clamp on CHO cells stably expressing hERG).
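Further: peak tail current of the secondary pulse compared with the same well before compound.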

human ether-à-go-go-related gene (hERG) potassium channel, sequence (Q12809 whole entry, looked up): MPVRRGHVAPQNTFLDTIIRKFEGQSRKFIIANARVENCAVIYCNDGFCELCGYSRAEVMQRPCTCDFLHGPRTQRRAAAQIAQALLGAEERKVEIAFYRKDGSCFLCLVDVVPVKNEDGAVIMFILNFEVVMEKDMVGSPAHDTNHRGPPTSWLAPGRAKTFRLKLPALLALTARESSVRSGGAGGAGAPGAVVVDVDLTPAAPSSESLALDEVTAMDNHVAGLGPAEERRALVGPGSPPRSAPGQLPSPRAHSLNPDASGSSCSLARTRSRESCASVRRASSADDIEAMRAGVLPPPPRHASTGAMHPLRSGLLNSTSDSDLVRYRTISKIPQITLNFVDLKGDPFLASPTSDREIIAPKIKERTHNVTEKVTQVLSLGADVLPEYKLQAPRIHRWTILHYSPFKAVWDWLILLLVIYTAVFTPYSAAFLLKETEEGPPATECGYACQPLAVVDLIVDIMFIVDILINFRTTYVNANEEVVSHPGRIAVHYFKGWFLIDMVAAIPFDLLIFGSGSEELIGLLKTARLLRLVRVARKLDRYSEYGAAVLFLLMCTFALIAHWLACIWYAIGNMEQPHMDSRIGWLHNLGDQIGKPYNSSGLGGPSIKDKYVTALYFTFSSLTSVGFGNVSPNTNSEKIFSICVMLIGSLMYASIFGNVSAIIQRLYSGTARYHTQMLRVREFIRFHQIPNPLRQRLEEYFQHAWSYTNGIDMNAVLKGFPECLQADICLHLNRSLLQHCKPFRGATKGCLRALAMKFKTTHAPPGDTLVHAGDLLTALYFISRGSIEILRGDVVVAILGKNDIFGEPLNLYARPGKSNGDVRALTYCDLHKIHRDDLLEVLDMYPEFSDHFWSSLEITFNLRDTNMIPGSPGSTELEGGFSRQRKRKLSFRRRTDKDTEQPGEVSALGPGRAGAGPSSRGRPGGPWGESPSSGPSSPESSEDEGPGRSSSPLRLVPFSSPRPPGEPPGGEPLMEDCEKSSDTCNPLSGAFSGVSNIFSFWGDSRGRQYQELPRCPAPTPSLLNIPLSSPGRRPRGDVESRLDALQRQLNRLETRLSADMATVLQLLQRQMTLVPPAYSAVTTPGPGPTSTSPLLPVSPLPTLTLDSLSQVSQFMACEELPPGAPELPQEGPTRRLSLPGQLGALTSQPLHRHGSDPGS

Row | Compound | hERG current change (%, negative = inhibition) at 10uM
1 | CN(C)c1ccc(C(O)Cc2nc3ccccc3n2C)cc1 (stereo not shown) | 3.73%
2 | CCn1cc(/C=N\NC(=O)c2cc(-c3ccccc3OC)nc3ccccc23)c(C)n1 | -2.18%
3 | O=C(CNS(=O)(=O)c1c(Cl)cccc1Cl)N1CCCCCC1 | 3.79%
4 | Cc1ccc(SCCC(=O)OCC(=O)Nc2ccc(S(N)(=O)=O)cc2)cc1 | 15.1%
5 | CC1(C)CC(=O)N(c2ccc(Cl)c(Cl)c2)C(=O)C1 | 7.72%
6 | CC(=O)Nc1cccc(NC(=O)c2c(-c3ccccc3Cl)noc2C)c1 | -25.9%
7 | Cc1ccc(S(=O)(=O)NNC(=O)C(=O)NNS(=O)(=O)c2ccc(C)cc2)cc1 | -1.99%
8 | COc1ccccc1-c1ccc2nnc(SC)n2n1 | 12.5%
9 | CC1(C)Cc2nc3sc4c(=O)n(CC(=O)NCc5ccccc5)cnc4c3cc2CO1 | 1.01%
10 | COc1ccc(NC(=O)C(=O)NCC(c2ccco2)N2CCc3ccccc32)cc1 (stereo not shown) | 8.32%
11 | Cc1nc2nc(C)c(NS(=O)(=O)c3ccc(C(C)(C)C)cc3)c(=O)n2[nH]1 | 13.6%
12 | COc1ccc(C(=O)NCc2nnc(SC)n2C2CCCCC2)cc1 | -6.63%
13 | O=C1CN=C(c2ccccc2)c2ccccc2N1 | 8.11%
14 | CC1CCCCN1C(=O)COC(=O)c1ccc(=O)n(Cc2ccccc2)n1 (stereo not shown) | -0.118%
15 | CSc1cccc(NC(=S)N(CCCN2CCCC2)Cc2cccs2)c1 | -63.7%
16 | COc1ccccc1N1CCN(C(=O)c2ccc3nc(-c4ccco4)c(-c4ccco4)nc3c2)CC1 | -15%
17 | CCCCc1ccc(N=N/C(C(=O)Nc2ccc(NC(C)=O)cc2OC)=C(/C)O)cc1 | -50.2%
18 | CCOC(=O)Cc1csc(NC(=O)c2cccc(N3C(=O)CCC3=O)c2)n1 | -13.5%
19 | O=C1CC2(CCN(C(=O)C(=O)c3c[nH]c4ccccc34)CC2)Oc2ccccc21 | -55.3%
20 | N#Cc1ccc(/C=C/C(=O)c2ccco2)cc1 | 1.68%
21 | C=CCc1cc(Cl)ccc1OCCCn1ccnc1.O=C(O)C(=O)O | -13.9%
22 | COc1ccc(-c2nc(SCC(=O)N(CC(C)C)c3c(N)n(Cc4ccccc4)c(=O)[nH]c3=O)n[nH]2)cc1 | -6.02%

Row | Compound | hERG current change (%, negative = inhibition) at 10uM
23 | CCCC/C=C/C(NC(=O)CCc1ccccc1)c1ccccc1 (stereo not shown) | -22.7%
24 | O=C(N/N=C/c1cc2c(cc1[N+](=O)[O-])OCO2)c1ccccn1 | 12%
25 | COc1ccc(N2C(=O)c3cccc4cc(Br)cc(c34)C2=O)cc1 | 10.3%
26 | CCOc1ccccc1CNC(=O)C1CCN(c2nn3c(=O)cc(C)nc3s2)CC1 | -15.8%
27 | CCNC(=O)COn1c(SCC(=O)NCC)nc2ccccc2c1=O | 12.5%
28 | COc1ccc(/C=N/NC(=O)c2ccc3c(c2)OCCO3)c(OC)c1 | 6.14%
29 | N#C/C(=C\c1ccncc1)c1nc2ccccc2o1 | -3.35%
30 | COC(=O)COc1ccc(/C=N/NS(=O)(=O)c2ccccc2)cc1 | 6.72%
31 | Cc1ccc(SCCCCN2CCNCC2)cc1.O=C(O)C(=O)O | -18.2%
32 | COc1ccc2ccc3c(c2c1)N=C[C@]1(O3)N(C)c2ccccc2C1(C)C | -9.8%
33 | CCOCCCn1c(SCc2ccccc2)nnc1-c1ccncc1 | -14.1%
34 | Cc1ccc(-c2nnn(CC(=O)N(CC3CCCO3)C(C(=O)NC3CCCC3)c3ccc(F)cc3)n2)o1 (stereo not shown) | 8.83%
35 | O=C(/C=C/c1cccs1)Nc1ccc(S(=O)(=O)Nc2ncccn2)cc1 | 20.2%
36 | CCCCN(C(=O)c1ccc(S(=O)(=O)N2CCOCC2)cc1)C1CCS(=O)(=O)C1 (stereo not shown) | -15.2%
37 | O=C(Nc1ccsc1C(=O)O)c1ccccc1Cl | 19.2%
38 | Cn1cccc1/C=N\NC(=O)Cc1ccc(Br)c2ccccc12 | -20.6%
39 | C/C(=N/NC(=O)CNC(=O)c1cccnc1)c1ccco1 | 32%
40 | COc1ccc(CCN(C(=O)C(F)(F)F)C(C(=O)NC2CCCCC2)c2cccs2)cc1 (stereo not shown) | 15.8%
41 | C=CCn1c(NCc2ccccc2)nc2ccccc21 | -26.4%
42 | Cc1cccc(NC(=O)C2CCN(c3nc(C)cc(C)n3)CC2)c1 | -3.89%
43 | Cc1c(C)n(C)c2ccc(C(=O)NCCCN3CCCCC3)cc12 | -17.2%
44 | CC(NC(=O)CSc1n[nH]c(=O)[nH]c1=O)C1CC2CCC1C2 (stereo not shown) | 13.9%

Row | Compound | hERG current change (%, negative = inhibition) at 10uM
45 | CC(=O)Oc1ccccc1C(=O)Nc1ncc([N+](=O)[O-])s1 | -2.57%
46 | CC1CN(c2c3c(nc4ncnn24)CCCC3)CC(C)O1 (stereo not shown) | -2.49%
47 | Cc1cc(-c2csc(NC(=O)c3cc4ccccc4o3)n2)c(C)n1C | -1.53%
48 | COc1ccc(NC(=O)c2nc[nH]c2C(=O)N[C@@H](C)C(=O)OC(C)(C)C)cc1 | 3.37%
49 | COCC(=O)n1cc(C(=O)OC)c2ccccc21 | -1.02%
50 | NC(=O)c1ccc(NC(=O)CSc2nnc(-c3cccnc3)n2Cc2ccco2)cc1 | 6.87%
51 | CCN(CC(=O)NCc1ccc(F)cc1)C(=O)Cc1c(F)cccc1Cl | -37.6%
52 | Cc1ccc(-c2csc3ncnc(N4CCN(C(=O)c5ccccc5)CC4)c23)cc1 | -30.5%
53 | Cc1c(F)cccc1NS(=O)(=O)c1ccc2c(c1)NC(=O)CO2 | 4.42%
54 | COc1ccccc1N1CCN(C(=O)c2ccc(S(=O)(=O)N3CCCCC3)cc2)CC1 | -10.2%
55 | O=C(Nc1cnn(Cc2ccc(F)cc2)c1)C(c1ccccc1)c1ccccc1 | -30.1%
56 | O=C1CC(c2ccccc2)CN1C(=O)c1cccnc1 (stereo not shown) | -2.28%
57 | CC(C)c1cc2c(c(O)c1O)[C@@]13CCCC(C)(C)C1CC2OC3=O (stereo partly shown) | -0.339%
58 | N/C(Cc1cccc2ccccc12)=N\OC(=O)c1cccs1 | 10.2%
59 | CN1CCN(NC(=O)c2cccs2)CC1.Cl | -47.4%
60 | O=C(CC1S/C(=N/N=C/c2ccco2)NC1=O)Nc1cccc(Cl)c1Cl (stereo not shown) | 18.2%
61 | O=C(CCc1ccccc1)Nc1ccccc1C(F)(F)F | 1.73%
62 | Cc1ccc(N(Cc2ccccc2O)C(=O)c2ccccc2F)cc1 | 6.57%
63 | O=C(CCC(=O)N1CCc2ccccc2C1)NCCc1ccc(Cl)cc1 | -32.9%
64 | O=C(Cn1cc(C(F)(F)F)ccc1=O)N1CCN(S(=O)(=O)c2ccccc2)CC1 | 3.23%
65 | Cc1ccc(S(=O)(=O)NCC(=O)OCC(=O)NCCc2ccccc2)cc1 | 9.61%
66 | COc1ccc(/C=N/NS(=O)(=O)c2ccc(NC(C)=O)cc2)cc1 | -8.43%

Row | Compound | hERG current change (%, negative = inhibition) at 10uM
67 | O=C(O/N=C/c1ccc(Cl)cc1)C1CCCCC1 | 9.03%
68 | O=C(CSc1nnc(Cc2ccccc2)o1)NCc1ccc2c(c1)OCO2 | -5.66%
69 | CCC(=O)Nc1ccc2c(c1)ncn2-c1ccc(C)cc1 | 4.96%
70 | COCCn1c(N)c(Sc2ccc(C)cc2)c(=O)[nH]c1=O | 8.4%
71 | O=C(CC(c1ccccc1)c1ccco1)N1CCCCC1 (stereo not shown) | -1.93%
72 | O=C(Nc1cccc([N+](=O)[O-])c1)c1ccncc1 | -11.3%
73 | COc1ccc(-n2c(=O)c(CCC(=O)NCCc3ccccc3F)nc3ccccc32)cc1 | -14.1%
74 | Cc1noc(C)c1CSCC(=O)Nc1ccccc1N1CCCCC1 | -0.57%
75 | CC(=O)Nc1cccc(-c2nc3ccccc3s2)c1 | -13.4%
76 | CCOc1ccc(S(=O)(=O)N(CC)CC(=O)NCc2ccncc2)cc1 | -13.2%
77 | CC(CCc1ccccc1)NC(=O)C(Cc1ccccc1)NS(=O)(=O)c1cccs1 (stereo not shown) | 11.3%
78 | CN(CC(=O)Nc1cccc(F)c1)CC(=O)N1CCc2ccccc21 | -28.2%
79 | Cc1csc(NC(=O)NCC2CCCC(CNC(=O)Nc3nc(C)cs3)C2)n1 (stereo not shown) | 7.05%
80 | CCCCN(C(=O)CC(c1ccccc1)c1ccccc1)c1c(N)n(CCC)c(=O)[nH]c1=O | -7.44%
81 | COc1ccc(N(CC(=O)NCc2ccc(F)cc2)C(=O)c2snc(C(N)=O)c2N)cc1 | 9.3%
82 | COc1ccc(N(CC(=O)N/N=C/c2cc3ccc(OC)cc3nc2Cl)S(=O)(=O)c2ccccc2)cc1 | 0.803%
83 | CCC(C)NC(=O)Cc1ccc(-c2ccccc2)cc1 (stereo not shown) | 15.2%
84 | N#CCCn1cc(/C=C2\NC(=S)N(c3ccccc3)C2=O)c(-c2ccc(F)cc2)n1 | 18.3%
85 | CCOc1cccc(CNCCCSc2ncccn2)c1.Cl | -23.8%
86 | COc1ccc(NC(=S)NCc2ccc(S(N)(=O)=O)cc2)cc1OC | 18%
87 | COc1ccc(NC(=O)CN(C2CCCCC2)S(C)(=O)=O)cc1OC | -0.377%
88 | O=C(COc1ccccc1N1C(=O)C2C3C=CC(C3)C2C1=O)c1ccccc1 (stereo not shown) | -1.53%
